According to US8501450B2, “Hepatitis C virus variants” (priority 2005, dated 2013):
pIC50: −log10 of the molar value. “And” between values parts separate entries of the source, which are not always exact repeats. Equal values may be shown once.

Tests used:
Experiment in all cases: Enzymatic IC50 assay, HCV NS3 serine protease domain
[1] = target: HCV NS3 protease V36M, R155T double mutant (Hepatitis C virus genotype 1a, UniProt P27958, R1181T/V1062M)
[2] = target: HCV NS3 protease V36M, R155K double mutant (Hepatitis C virus genotype 1a, UniProt P27958, R1181K/V1062M)
[3] = target: HCV NS3 protease V36M mutant (Hepatitis C virus genotype 1a, UniProt P27958, V1062M)

**Q.** How did the pIC50 [1] turn out when `COc1ccc2c(O[C@@H]3C[C@H]4C(=O)N[C@]5(C(=O)O)C[C@H]5/C=C\CCCCC[C@H](NC(=O)OC5CCCC5)C(=O)N4C3)cc(-c3csc(NC(C)C)n3)nc2c1` [BILN 2061] was run?
**A.** Its pIC50 is 6.14.

**Q.** What about the pIC50 ([2]; IC50, V36M, R155K protease, each line a patient-specific clone) of the same compound?
**A.** Its pIC50 is < 6.08.

**Q.** What about the Fold change ([2]; V36M, R155K, enzyme IC50 vs genotype 1a HCV-H reference strain) of the same compound?
**A.** The Fold change was >183 fold.

**Q.** And the pIC50 ([3]; IC50, V36M protease, each line a patient-specific clone)?
**A.** Its pIC50 is 8.70 and 8.64.

**Q.** What about the Fold change ([3]; V36M, enzyme IC50 vs genotype 1a HCV-H reference strain) of the same compound?
**A.** Its Fold change is 0.5 fold.
